Measurements published in PubChem BioAssay (Tox21).
Where “and” joins values, the source holds several entries; their conditions need not be identical. Equal values may be shown once. The shares of active, inactive and inconclusive entries below differ from those in the screen. Where a call stands in place of a potency, no number is given. For some of these results: Potencies of inconclusive entries are doubtful fits and often do not repeat. Calls of active or inactive are those of the source. Unless noted, calls come from the whole dose curve; as a rule, active = well fitted curve in the direction sought with a large enough effect in the repeat runs; inconclusive = weak or mixed curves; inactive = no such curve, though single readings can be large; an effect the other way counts as inactive or inconclusive.

Tests used:
[1] = biological target: Glucocorticoid receptor (Homo sapiens) (UniProt P04150); experiment: qHTS assay to identify small molecule antagonists of the glucocorticoid receptor (GR) signaling pathway (AID 720692; active = well fitted inhibition curve with a large enough effect in the signal ratio in the repeat runs, not every such curve was filed as active; inconclusive = weak or mixed curves, or effect the other way; inactive = no such curve, though single readings can be large or run the other way; the % refers to the signal ratio; note: potency is the fitted concentration of half-maximal effect); conditions: GR-bla HeLa, beta-lactamase FRET ratio, dexamethasone-stimulated, 18 h; activity change, negative = inhibition: at 58.5 µM (top of the series) unless noted
Chain of UniProt P04150 (P04150 whole entry, looked up): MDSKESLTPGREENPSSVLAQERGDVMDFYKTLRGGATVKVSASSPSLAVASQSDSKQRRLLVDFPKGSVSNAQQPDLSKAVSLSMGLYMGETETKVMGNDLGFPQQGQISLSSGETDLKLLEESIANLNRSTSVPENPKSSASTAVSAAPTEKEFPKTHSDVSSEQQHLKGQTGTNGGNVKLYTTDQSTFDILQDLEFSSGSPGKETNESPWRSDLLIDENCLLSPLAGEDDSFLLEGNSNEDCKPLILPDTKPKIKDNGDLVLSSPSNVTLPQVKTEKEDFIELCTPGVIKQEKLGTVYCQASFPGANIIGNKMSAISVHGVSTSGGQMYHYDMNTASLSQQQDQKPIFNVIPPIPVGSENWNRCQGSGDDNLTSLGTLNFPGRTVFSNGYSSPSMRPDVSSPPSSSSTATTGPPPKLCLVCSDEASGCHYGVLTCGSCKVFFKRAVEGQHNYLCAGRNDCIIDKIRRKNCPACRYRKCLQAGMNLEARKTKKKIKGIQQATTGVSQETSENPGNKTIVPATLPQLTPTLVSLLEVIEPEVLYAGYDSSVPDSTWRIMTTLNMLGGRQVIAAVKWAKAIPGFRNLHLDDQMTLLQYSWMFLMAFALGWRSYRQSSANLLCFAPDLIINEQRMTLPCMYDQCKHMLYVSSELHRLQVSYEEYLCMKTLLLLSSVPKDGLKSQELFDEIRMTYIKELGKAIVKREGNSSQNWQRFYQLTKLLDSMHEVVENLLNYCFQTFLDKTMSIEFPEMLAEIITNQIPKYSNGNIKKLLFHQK
Outline: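 HeLa GR-bla cells; cmpd + dex 5 nM final, 18 h 37 C; LiveBLAzer B/G FRET substrate 2 h RT; fluorescence intensity read. Antagonist mode, qHTS.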

[2] = qHTS assay for identifying genotoxic compounds that show differential cytotoxicity against isogenic chicken DT40 cell lines with known DNA damage response pathways - Rev3 mutant cell line (AID 743014); conditions: chicken DT40 Rev3-/- viability, CellTiter-Glo, 40 h; activity, negative = cytotoxicity: at 68.4 µM (top of the series) unless noted; note: nearly all actives have a fitted effect of over 55% in size; note: potency is the fitted concentration of half-maximal effect
[3] = qHTS assay for identifying genotoxic compounds that show differential cytotoxicity against isogenic chicken DT40 cell lines with known DNA damage response pathways - Rad54/Ku70 mutant cell line (AID 743015); conditions: DT40 Rad54/Ku70 mutant viability, CellTiter-Glo, 40 h; activity change, negative = cytotoxicity: at 66.8 µM (top of the series); note: nearly all actives have a fitted effect of over 60% in size; note: potency is the fitted concentration of half-maximal effect
[4] = biological target: Androgen receptor (Homo sapiens) (UniProt P10275); experiment: qHTS assay to identify small molecule antagonists of the androgen receptor (AR) signaling pathway (AID 743035; active = well fitted inhibition curve with a large enough effect in the signal ratio in the repeat runs, not every such curve was filed as active; inconclusive = weak or mixed curves, or effect the other way; inactive = no such curve, though single readings can be large or run the other way; the % refers to the signal ratio); conditions: HEK293 AR-UAS-bla, R1881-stimulated, beta-lactamase FRET, 16 h; activity change, negative = inhibition: at 58.5 µM (top of the series) unless noted
Chain of UniProt P10275 (P10275 whole entry, looked up): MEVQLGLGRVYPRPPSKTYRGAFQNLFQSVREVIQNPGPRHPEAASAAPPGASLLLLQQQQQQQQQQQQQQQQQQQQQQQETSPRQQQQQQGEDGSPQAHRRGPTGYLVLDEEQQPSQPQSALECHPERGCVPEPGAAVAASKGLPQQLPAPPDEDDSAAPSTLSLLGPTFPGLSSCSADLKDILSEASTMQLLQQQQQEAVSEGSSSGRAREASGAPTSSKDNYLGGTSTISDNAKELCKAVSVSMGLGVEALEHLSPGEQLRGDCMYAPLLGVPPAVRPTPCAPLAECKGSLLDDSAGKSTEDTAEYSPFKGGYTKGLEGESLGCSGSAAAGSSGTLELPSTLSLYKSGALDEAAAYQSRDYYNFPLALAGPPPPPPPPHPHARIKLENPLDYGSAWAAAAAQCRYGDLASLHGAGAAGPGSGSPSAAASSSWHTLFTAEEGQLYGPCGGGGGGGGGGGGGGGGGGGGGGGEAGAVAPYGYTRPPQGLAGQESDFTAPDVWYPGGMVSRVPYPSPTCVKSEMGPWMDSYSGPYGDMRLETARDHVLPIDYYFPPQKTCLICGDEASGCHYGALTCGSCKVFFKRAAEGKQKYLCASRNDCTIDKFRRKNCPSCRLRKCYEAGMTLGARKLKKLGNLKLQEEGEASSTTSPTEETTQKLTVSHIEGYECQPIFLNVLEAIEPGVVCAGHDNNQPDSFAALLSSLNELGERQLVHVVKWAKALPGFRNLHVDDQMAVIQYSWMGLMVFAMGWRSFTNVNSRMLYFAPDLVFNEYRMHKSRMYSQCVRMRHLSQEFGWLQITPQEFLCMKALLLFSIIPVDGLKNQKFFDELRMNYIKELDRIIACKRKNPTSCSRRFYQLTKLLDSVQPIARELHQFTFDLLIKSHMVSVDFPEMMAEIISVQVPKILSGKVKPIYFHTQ
Outline: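 Fluorescence from a beta-lactamase FRET substrate (LiveBLAzer B/G, 2 h, room temperature) measured inhibition of R1881-stimulated signaling in GeneBLAzer AR-UAS-bla HEK293 cells exposed to compound for 16 h at 37C.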

[5] = qHTS assay to identify small molecule antagonists of the androgen receptor (AR) signaling pathway - cell viability counter screen (AID 743033; note: nearly all actives have a fitted effect of over 45% in size; note: potency is the fitted concentration of half-maximal effect); conditions: AR-bla HEK293 viability, CellTiter-Glo luminescence, 16 h; activity change, negative = cytotoxicity: at 58.5 µM (top of the series) unless noted
Tags give direction and shape of the fitted curve or compound fluorescence and quenching.

## NCCN1CCOCC1
[1]
  Potency: inactive
[2]
  Potency: inconclusive: 61.1 µM [cytotoxic, partial curve, poor fit]
[3]
  Potency: inactive

## O=C1c2ccccc2C(=O)C1c1ccc2cc(S(=O)(=O)O)cc(S(=O)(=O)O)c2n1
[1]
  activity change, negative = inhibition: inconclusive: -39.5% [at 78.9 µM]
[2]
  Potency: inconclusive: 29.5 µM [cytotoxic]
[3]
  Potency: inconclusive: 74.1 µM [cytotoxic, single point]

## Cc1c(C(=O)NCCO)[n+](=O)c2ccccc2n1[O-]
[1]
  Potency: inactive
[2]
  Potency: inconclusive: 11.9 µM [cytotoxic, partial curve]
[3]
  Potency: inconclusive: 29.8 µM [cytotoxic]

## NCCCCCC(=O)O
[1]
  Potency: inconclusive: 5.74 µM [activator, single point]
[2]
  Potency: inconclusive: 5.07 µM [rising, partial curve, poor fit]

## Cc1ccc(C)o1
[1]
  Potency: inactive
[3]
  Potency: inactive

## O=C1CCCC1
[1]
  activity change, negative = inhibition: inconclusive: 19%
[2]
  Potency: inactive

## CCC(C)c1cc(C(C)(C)C)c(O)c(C(C)(C)C)c1 (stereo not given)
[1]
  Potency: inactive
[3]
  Potency: inactive

## CCCCCC/C=C/C(=O)OC
[1]
  Potency: inactive
[3]
  Potency: inconclusive: 68.6 µM [cytotoxic, single point]

## CC(C)=CC=O
[1]
  activity change, negative = inhibition: inconclusive: 1.23% [at 78.9 µM]
[2]
  Potency: inactive
[4]
  Potency: inactive

## Cc1cc(O)c(Cl)cc1C
[1]
  Potency: inactive
[3]
  Potency: inactive

## Cc1cc(CC(=O)O)c(C)n1-c1ccc(Cl)cc1
[1]
  activity change, negative = inhibition: inconclusive: -22.4%
[2]
  Potency: active: 33.5 µM
[3]
  Potency: inconclusive: 33.5 µM [cytotoxic, single point]

## CCN(CC)CCOC(=O)C1(c2ccccc2)CCCC1
[1]
  Potency: inactive
[2]
  Potency: inconclusive: 9.44 µM [cytotoxic, partial curve]
[5]
  Potency: inactive

## NCCCOCCOCCOCCCN
[1]
  Potency: inactive
[2]
  Potency: active: 10.9 µM

## CC(=O)OCCC(C)C
[1]
  Potency: inactive
[2]
  Potency: inactive
[3]
  Potency: inactive

## Nc1nc2c(ncn2COC(CO)CO)c(=O)[nH]1
[1]
  activity change, negative = inhibition: inconclusive: 0.105% [at 27 µM]
[2]
  Potency: inconclusive: 12.7 µM [cytotoxic, partial curve, poor fit]
[3]
  Potency: active: 8.04 µM
[5]
  Potency: inconclusive: 11.5 µM [cytotoxic, single point]

## CC(=O)NS(=O)(=O)c1ccc(N)cc1
[1]
  activity change, negative = inhibition: inconclusive: -1.74% and inconclusive: 5.26%
[2]
  Potency: inactive

## c1ccc(Oc2ccccc2)cc1
[1]
  Potency: inactive
[2]
  Potency: inactive
[3]
  Potency: inconclusive: 30.6 µM [cytotoxic, partial curve, poor fit]

## NC(=O)Cn1c(=O)cc(CCN2CCN(c3nccc4sccc34)CC2)c2ccc(F)cc21
[1]
  Potency: inactive
[2]
  Potency: active: 27.3 µM
[5]
  Potency: inconclusive: 30.9 µM [cytotoxic, partial curve, poor fit]

## Cc1ccc(/C=N/n2c(-c3ccccc3)csc2=S)cc1
[1]
  activity change, negative = inhibition: inconclusive: -27.5%
[2]
  Potency: inconclusive: 33.5 µM [cytotoxic, single point]
[3]
  Potency: active: 29.8 µM

## Oc1ccc(C(O)CNCCCCCCNCC(O)c2ccc(O)c(O)c2)cc1O (stereo not given)
[1]
  Potency: inactive
[3]
  Potency: inconclusive: 33.5 µM [cytotoxic, single point]

## CCOC(=O)c1ccccc1
[1]
  Potency: inactive
[2]
  Potency: inconclusive: 21.7 µM [cytotoxic, partial curve, poor fit]
[3]
  Potency: inconclusive: 77 µM [cytotoxic, partial curve, poor fit]

## OCc1cc(C(O)CNCCCCCCOCCCCc2ccccc2)ccc1O (stereo not given)
[1]
  Potency: inconclusive: 21.3 µM [activator, partial curve, poor fit]
[2]
  Potency: active: 5.96 µM and active: 4.73 µM
[5]
  Potency: inconclusive: 2.13 µM [cytotoxic, full curve, poor fit] and inconclusive: 26.8 µM [cytotoxic, single point]

## Cc1ccc(S(=O)(=O)NC(=O)NC2CCCC2)cc1
[1]
  Potency: inactive
[2]
  Potency: inactive
[5]
  Potency: inconclusive: 4.77 µM [rising, full curve, poor fit]

## COc1ccc(-c2cc(=O)c3c(O)cc(O[C@@H]4O[C@H](CO[C@@H]5O[C@@H](C)[C@H](O)[C@@H](O)[C@H]5O)[C@@H](O)[C@H](O)[C@H]4O)cc3o2)cc1O
[1]
  Potency: inactive
[2]
  Potency: inactive

## CCN1C=CN(C)C1C (stereo not given)
[1]
  Potency: inactive
[2]
  Potency: inactive

## Cc1ccc2c(c1)OCC(=O)CO2
[1]
  Potency: inactive
[3]
  Potency: inactive

## COC(=O)CCSCCC(=O)OC
[1]
  activity change, negative = inhibition: inconclusive: 6.62%
[2]
  Potency: inactive
[3]
  Potency: inactive
